# Some of the results follow.
# How the values were obtained:
# Experiment in all cases: glycan array binding signal (z-score within array); higher = stronger binding
# Details in all cases: glycan notation: IUPAC condensed, linker removed
# Neu5Ac(a2-8)Neu5Ac = target: Neu5Ac(a2-8)Neu5Ac
# Procedure, shortened: (§1)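 From the Consortium for Functional Glycomics database, 3228 arrays were curated, keeping only those whose protein sequence was available. Binding is given as a within-array Z-score averaged across arrays sharing a protein sequence and across linkers. Negative Z-scores can be read as non-binding.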
# [1] = target: Neu5Ac(a2-8)Neu5Ac(a2-3)Gal(b1-3)GalNAc(b1-4)[Neu5Ac(a2-3)]Gal(b1-4)Glc
# Procedure, shortened: as §1
# [2] = target: Neu5Ac(a2-8)Neu5Ac(a2-3)Gal(b1-3)GalNAc(b1-4)[Neu5Ac(a2-8)Neu5Ac(a2-3)]Gal(b1-4)Glc
# Procedure, shortened: as §1
# [3] = target: Neu5Ac(a2-8)Neu5Ac(a2-3)Gal(b1-4)Glc
# Procedure, shortened: as §1
# [4] = target: Neu5Ac(a2-8)Neu5Ac(a2-3)Gal(b1-4)GlcNAc
# Procedure, shortened: as §1
# [5] = target: Neu5Ac(a2-8)Neu5Ac(a2-3)[Gal(b1-3)GalNAc(b1-4)]Gal(b1-4)Glc
# Procedure, shortened: as §1
# [6] = target: Neu5Ac(a2-8)Neu5Ac(a2-3)[GalNAc(b1-4)]Gal(b1-4)Glc
# Procedure, shortened: as §1
# [7] = target: Neu5Ac(a2-8)Neu5Ac(a2-8)Neu5Ac
# Procedure, shortened: as §1
# [8] = target: Neu5Ac(a2-8)Neu5Ac(a2-8)Neu5Ac(a2-3)Gal(b1-4)Glc
# Procedure, shortened: as §1
# [9] = target: Neu5Ac(a2-8)Neu5Ac(a2-8)Neu5Ac(a2-3)[Gal(b1-3)GalNAc(b1-4)]Gal(b1-4)Glc
# Procedure, shortened: as §1
# [10] = target: Neu5Ac(a2-8)Neu5Ac(a2-8)Neu5Ac(a2-3)[GalNAc(b1-4)]Gal(b1-4)Glc
# Procedure, shortened: as §1
# [11] = target: Neu5Ac(a2-8)Neu5Ac(a2-8)Neu5Ac(a2-8)Neu5Ac(a2-3)[GalNAc(b1-4)]Gal(b1-4)Glc
# Procedure, shortened: as §1
# [12] = target: Neu5Ac(a2-8)Neu5Gc(a2-3)Gal(b1-4)GlcNAc
# Procedure, shortened: as §1
# [13] = target: Neu5Ac(b2-6)Gal(b1-4)GlcNAc
# Procedure, shortened: as §1
# Neu5Ac(b2-6)GalNAc = target: Neu5Ac(b2-6)GalNAc
# Procedure, shortened: as §1
# [14] = target: Neu5Ac9Ac(a2-3)Gal(b1-3)GlcNAc
# Procedure, shortened: as §1
# [15] = target: Neu5Ac9Ac(a2-3)Gal(b1-4)GlcNAc
# Procedure, shortened: as §1
# [16] = target: Neu5Ac9Ac(a2-6)Gal(b1-4)GlcNAc
# Procedure, shortened: as §1
# [17] = target: Neu5Gc(a2-3)Gal(b1-3)GlcNAc
# Procedure, shortened: as §1
# [18] = target: Neu5Gc(a2-3)Gal(b1-3)[Fuc(a1-4)]GlcNAc
# Procedure, shortened: as §1
# Neu5Gc(a2-3)Gal(b1-4)Glc = target: Neu5Gc(a2-3)Gal(b1-4)Glc
# Procedure, shortened: as §1
# [19] = target: Neu5Gc(a2-3)Gal(b1-4)GlcNAc
# Procedure, shortened: as §1
# [20] = target: Neu5Gc(a2-3)Gal(b1-4)GlcNAc(b1-3)Gal(b1-4)GlcNAc(b1-2)Man(a1-3)[Neu5Gc(a2-3)Gal(b1-4)GlcNAc(b1-3)Gal(b1-4)GlcNAc(b1-2)Man(a1-6)]Man(b1-4)GlcNAc(b1-4)GlcNAc
# Procedure, shortened: as §1
# [21] = target: Neu5Gc(a2-3)Gal(b1-4)[Fuc(a1-3)]GlcNAc
# Procedure, shortened: as §1
# [22] = target: Neu5Gc(a2-6)Gal(b1-4)GlcNAc
# Procedure, shortened: as §1
# Neu5Gc(a2-6)GalNAc = target: Neu5Gc(a2-6)GalNAc
# Procedure, shortened: as §1
# [23] = target: Neu5Gc(a2-8)Neu5Ac(a2-3)Gal(b1-4)GlcNAc
# Procedure, shortened: as §1
# [24] = target: Neu5Gc(a2-8)Neu5Gc(a2-3)Gal(b1-4)GlcNAc
# Procedure, shortened: as §1
# [25] = target: Neu5Gc(a2-8)Neu5Gc(a2-3)Gal(b1-4)GlcNAc(b1-3)Gal(b1-4)GlcNAc
# Procedure, shortened: as §1
# [26] = target: Neu5Gc(a2-8)Neu5Gc(a2-6)Gal(b1-4)GlcNAc
# Procedure, shortened: as §1
# [27] = target: Neu5Gc(b2-6)Gal(b1-4)GlcNAc
# Procedure, shortened: as §1
binder,measurement,setting,value
OGAA (protein) MVQKESQATLEERESELSSNPAASAGASLEPPAAPAPGEDNPAGAGGAAVAGAAGGARRFLCGVVEGFYGRPWVMEQRKELFRRLQKWELNTYLYAPKDDYKHRMFWREMYSVEEAEQLMTLISAAREYEIEFIYAISPGLDITFSNPKEVSTLKRKLDQVSQFGCRSFALLFADIDHNMCAADKEVFSSFAHAQVSITNEIYQYLGEPETFLFCPTEYCGTFCYPNVSQSPYLRTVGEKLLPGIEVLWTGPKVVSKEIPVESIEEVSKIIKRAPVIWDNIHANDYDQKRLFLGPYKGRSTELIPRLKGVLTNPNCEFEANYVAIHTLATWYKSNMNGVRKDVVMTDSEDSTVSIQIKLENEGSDEDIETDVLYSPQMALKLALTEWLQEFGVPHQY,glycan array binding signal (z-score),Neu5Ac(a2-8)Neu5Ac,-0.121
same,glycan array binding signal (z-score),[1],-0.107
same,glycan array binding signal (z-score),[2],0.02
same,glycan array binding signal (z-score),[3],-0.022
same,glycan array binding signal (z-score),[4],-0.117
same,glycan array binding signal (z-score),[5],0.132
same,glycan array binding signal (z-score),[6],-0.086
same,glycan array binding signal (z-score),[7],-0.118
same,glycan array binding signal (z-score),[8],-0.132
same,glycan array binding signal (z-score),[9],-0.094
same,glycan array binding signal (z-score),[10],-0.032
same,glycan array binding signal (z-score),[11],-0.107
same,glycan array binding signal (z-score),[12],-0.042
same,glycan array binding signal (z-score),[13],-0.101
same,glycan array binding signal (z-score),Neu5Ac(b2-6)GalNAc,-0.131
same,glycan array binding signal (z-score),[14],-0.029
same,glycan array binding signal (z-score),[15],-0.088
same,glycan array binding signal (z-score),[16],-0.088
same,glycan array binding signal (z-score),[17],-0.026
same,glycan array binding signal (z-score),[18],-0.033
same,glycan array binding signal (z-score),Neu5Gc(a2-3)Gal(b1-4)Glc,0.047
same,glycan array binding signal (z-score),[19],-0.07
same,glycan array binding signal (z-score),[20],-0.094
same,glycan array binding signal (z-score),[21],-0.02
same,glycan array binding signal (z-score),[22],-0.063
same,glycan array binding signal (z-score),Neu5Gc(a2-6)GalNAc,-0.058
same,glycan array binding signal (z-score),[23],-0.078
same,glycan array binding signal (z-score),[24],-0.085
same,glycan array binding signal (z-score),[25],-0.047
same,glycan array binding signal (z-score),[26],-0.034
same,glycan array binding signal (z-score),[27],-0.029
